Reference: publication PMC4336329 (PLoS ONE, 2015)
About 14,000 (4.5%) of roughly 310,000 compounds showed an effect of 50% or more. Effects have a minus sign here. Some of the results follow.

Molecular target: human ether-à-go-go-related gene (hERG) potassium channel (human, UniProt Q12809)
Assay: primary screen, population patch clamp on CHO cells stably expressing hERG
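Note: peak tail current of the secondary pulse compared with the same well before compound.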

human ether-à-go-go-related gene (hERG) potassium channel, sequence (Q12809 whole entry, looked up): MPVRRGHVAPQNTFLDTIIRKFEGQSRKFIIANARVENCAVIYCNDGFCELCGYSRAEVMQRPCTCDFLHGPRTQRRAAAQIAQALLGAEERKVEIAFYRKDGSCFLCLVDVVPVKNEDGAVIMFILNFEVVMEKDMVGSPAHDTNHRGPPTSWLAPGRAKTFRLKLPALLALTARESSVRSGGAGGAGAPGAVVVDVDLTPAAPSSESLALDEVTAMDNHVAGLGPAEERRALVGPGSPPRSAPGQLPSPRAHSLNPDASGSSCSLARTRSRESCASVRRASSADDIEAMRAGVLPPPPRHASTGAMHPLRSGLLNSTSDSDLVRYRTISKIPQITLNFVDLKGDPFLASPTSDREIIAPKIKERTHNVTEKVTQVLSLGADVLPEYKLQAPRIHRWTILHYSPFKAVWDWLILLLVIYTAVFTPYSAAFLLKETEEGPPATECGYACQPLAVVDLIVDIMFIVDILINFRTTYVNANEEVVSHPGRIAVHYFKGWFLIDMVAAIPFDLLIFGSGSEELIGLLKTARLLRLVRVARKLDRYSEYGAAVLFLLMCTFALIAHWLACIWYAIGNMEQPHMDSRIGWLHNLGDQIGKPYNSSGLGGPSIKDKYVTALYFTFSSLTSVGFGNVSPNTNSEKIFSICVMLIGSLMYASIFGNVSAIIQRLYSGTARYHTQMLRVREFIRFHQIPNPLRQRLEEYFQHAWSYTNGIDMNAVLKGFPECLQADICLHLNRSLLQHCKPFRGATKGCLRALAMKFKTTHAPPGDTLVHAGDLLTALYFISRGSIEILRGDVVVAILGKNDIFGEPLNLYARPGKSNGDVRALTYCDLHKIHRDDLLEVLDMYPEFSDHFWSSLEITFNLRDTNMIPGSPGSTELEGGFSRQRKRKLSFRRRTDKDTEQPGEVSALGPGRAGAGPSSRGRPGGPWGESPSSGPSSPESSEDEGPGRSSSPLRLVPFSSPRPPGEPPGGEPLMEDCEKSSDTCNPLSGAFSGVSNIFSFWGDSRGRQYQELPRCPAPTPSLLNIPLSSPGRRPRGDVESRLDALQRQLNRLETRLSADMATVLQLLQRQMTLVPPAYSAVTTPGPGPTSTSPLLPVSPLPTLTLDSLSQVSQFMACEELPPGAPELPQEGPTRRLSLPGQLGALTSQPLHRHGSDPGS

Row | SMILES | hERG current change (%, negative = inhibition) at 10uM [%]
1 | CC(C)c1onc(C(=O)NCc2cccs2)c1[N+](=O)[O-] | 5.33
2 | O=C(Nc1nccs1)C1CC(=O)N(c2ccccc2)C1 (centres unmarked) | 14.1
3 | CCn1ncc2c(OCc3ccc(C#N)cc3)cc(C)nc21 | -34.2
4 | Cc1ccc(C(=O)NCC#N)cc1 | 5.72
5 | Cc1ccc(C(=O)CCC(=O)NC2CCCC(C)C2C)cc1 (centres unmarked) | 14.3
6 | Cc1cccc(-n2cnc3c(c2=O)c2nc4ccccc4nc2n3Cc2ccco2)c1 | -63.7
7 | CC(Sc1ccccc1)C(=O)NN=C1CCCCCCC1 (centres unmarked) | 2.12
8 | CCC(C)[C@@H](N)C(=O)N/N=C/c1ccc2ncccc2c1.Cl (some centres unmarked) | 9.23
9 | CN(C)C(C)(C)C#CCCCCC#CC(C)(C)N(C)C | 16.5
10 | Cc1cc(C)c(C(=O)NCC(=O)c2ccccc2)c(C)c1 | 11.1
11 | Cc1c(NC(=O)CSc2nc3ccc(Cl)cc3[nH]2)c(=O)n(-c2ccccc2)n1C | 4.9
12 | CCOc1ccc(C(=O)NC2CCN(C(=O)NCc3ccccc3)CC2)cc1 | 1.82
13 | Cc1ccc2c(Cl)cc(Cl)c(OCC(=O)O)c2n1 | 11.9
14 | O=C(Nc1ccc(S(=O)(=O)N2CCOCC2)cc1)c1cccs1 | 6.03
15 | CC(C)(C)NC(=O)C(=O)NNC(=O)c1ccc(C(C)(C)C)cc1 | -0.346
16 | O=C(CN1C(=O)NC2(CCCCCCC2)C1=O)Nc1ccc(Cl)cc1 | 4
17 | Cc1ccc(C)c(NC(=O)COC(=O)COc2cccc3c2OC(C)(C)C3)c1 | 11.5
18 | O=C(c1cn(CC2CCCCC2)nn1)N1CCN(c2ccc(F)cc2)CC1 | -52.5
19 | COc1ccc(NC(=O)CSCC(=O)Nc2ccccc2N2CCCCC2)cc1 | 9.38
20 | Cc1ccc(C(=O)CCC(=O)NCc2ccc(Cl)cc2)cc1 | -8.52
21 | COc1cccc(C2C(C(N)=O)=C(C)Nc3nc(CCCO)nn32)c1OC (centres unmarked) | 4.7
22 | CCc1ccc(NC(=O)C(CC)Sc2nc3ccsc3c(=O)n2CCC(=O)O)cc1 (centres unmarked) | 17.5
23 | CCOC(=O)CSc1nc2c(cnn2-c2ccc(Cl)cc2)c(=O)[nH]1 | 21.8

Row | SMILES | hERG current change (%, negative = inhibition) at 10uM [%]
24 | c1ccc(OCCSc2nnnn2C2CCCCC2)cc1 | -3.5
25 | Fc1ccc(-c2[nH]ncc2CN2CCN(c3ccc(F)cc3)CC2)cc1 | -44.5
26 | Cc1nc2sc(C(c3ccc(C(C)C)cc3)N3CCN(CCO)CC3)c(O)n2n1 (centres unmarked) | 9.72
27 | COc1ccc2c(=O)c(-c3ccc4c(c3)OCO4)coc2c1 | 5.86
28 | COc1cc(-c2n[nH]c(=S)n2-c2cccc(C(F)(F)F)c2)cc(OC)c1OC | 6.33
29 | O=C(C1COc2ccccc2O1)N1CCN(c2nc3ccc([N+](=O)[O-])cc3s2)CC1 (centres unmarked) | -29.8
30 | C/C(=N\NC(=O)CSCc1ccc([N+](=O)[O-])cc1)c1ccccc1O | -2.52
31 | Cc1[nH]c2ccc(-c3n[nH]c(=S)n3C)cc2c1C | -30.3
32 | Cc1cccc(S(=O)Cc2ccc(C(=O)N3CCN(C(=O)c4ccco4)CC3)o2)c1 (centres unmarked) | -10.2
33 | CN(C)c1ccc(CNc2ncc(Br)cc2Br)cc1 | -3.62
34 | CN(C(=O)COC(=O)c1cc[n+]([O-])cc1)c1ccccc1 | 16.9
35 | CN(CC(=O)NCCc1ccc(Cl)cc1)S(=O)(=O)c1cccs1 | -39
36 | CSc1ccc(Cl)c(C(=O)OCC(=O)N2CC(C)OC(C)C2)c1 (centres unmarked) | 3.41
37 | COc1ccc(OC)c(Nc2ccc(Nc3cc(OC)ccc3OC)nn2)c1 | -2.07
38 | CCOC(=O)C1=C(C)Nc2nc(C)nn2C1c1ccc(C)cc1 (centres unmarked) | 11.8
39 | O=c1cccc2n1CC1CC2CN(S(=O)(=O)c2ccccc2)C1 (centres unmarked) | -3.59
40 | CCOc1cc(/C=C2\CCCC(C(=O)C(F)(F)F)=C2O)ccc1O | -0.748
41 | CCCC(=O)OCC(=O)Nc1ccc2[nH]c(=O)[nH]c2c1 | 20.2
42 | COc1ccc(C2=NN(C(C)=O)CC2c2cccc([N+](=O)[O-])c2)cc1 (centres unmarked) | -44.3
43 | Cc1ccc(C(C)C)c(OCCOCCN2CCNCC2)c1.O=C(O)C(=O)O | -3.95
44 | CNc1nc(=S)[nH]c2ccccc12 | 12.6
45 | COc1ccc(-c2cc(C(F)(F)F)n3ncc(C(=O)N4CCCCC4c4cccnc4)c3n2)cc1 (centres unmarked) | -15.7
46 | O=C(NC(=S)Nc1cc([N+](=O)[O-])ccc1O)c1ccc2c(c1)OCO2 | 4.41

Row | SMILES | hERG current change (%, negative = inhibition) at 10uM [%]
47 | COc1ccc(CNC(=O)c2c(C)cc(=O)oc2C)cc1 | -26.8
48 | CCN1CCN(c2ccc(S(=O)(=O)N3CCOCC3)cc2NC(=O)c2ccc(Cl)cc2Cl)CC1 | -38.4
49 | C=CCOC(=O)C1=C(C)NC(=S)NC1c1cccs1 (centres unmarked) | -5.26
50 | CC12C(=O)N(c3ccc(OC(=O)c4ccco4)cc3)C(=O)C1C1c3ccccc3C2c2ccccc21 (centres unmarked) | 12.2
51 | COc1cc(C(=S)N2CCN(C)CC2)ccc1OCC(=O)NCc1ccccc1 | 27
52 | CS(=O)(=O)N(CC(=O)N1CCN(c2ccccc2F)CC1)c1cc(C(F)(F)F)ccc1Cl | 7.95
53 | Cc1cccc(NC(=O)CSc2nnc(CNC(=O)c3ccc(S(=O)(=O)N(C)C)cc3)n2-c2ccccc2)c1 | -20.1
54 | CC(C)(C)c1ccccc1OCC(=O)NCCCn1ccnc1 | -25.1
55 | CCc1nnc(NC(=O)c2cccc(NC(=O)C(C)C)c2)s1 | 9.98
56 | Cc1ccc(C(=O)Nc2nc(-c3ccccc3)c(-c3ccccc3)o2)cc1 | -14.1
57 | Clc1ccc(-c2noc(CN3CCOCC3)n2)cc1 | 4.83
58 | Cc1ccc(N(CC(=O)NCc2ccco2)C(=O)CCC(=O)Nc2nccs2)cc1 | -1.5
59 | O=CN1CCCN(Cc2nc(-c3cccc(Cl)c3)no2)CC1 | -13.3
60 | Cc1ccc(S(=O)(=O)NCCNC(=O)c2ccccc2)cc1 | 12.4
61 | COc1ccc(NC(=O)CN(C)C(=O)c2ccc(C)s2)cc1 | 6.73
62 | O=C(CCNC(=O)c1ccc(Br)cc1)NCc1ccco1 | -4.45
63 | O=C1NC(=O)C(=CN2CCc3ccccc32)C(=O)N1 | 15.8
64 | COc1cc(OC)cc(C(=O)NC(=S)Nc2cc3oc4ccccc4c3cc2OC)c1 | 18.5
65 | O=C(Nc1ccccc1)c1ccc(S(=O)(=O)N2CCOCC2)cc1 | 2.32
66 | Cc1noc(C)c1S(=O)(=O)Nc1cc(C(F)(F)F)ccc1N1CCOCC1 | 7.85
67 | Cc1ccc(-n2c(=O)c3c(n4cnnc24)-c2ccccc2CC32CCCCC2)cc1 | -16.6
68 | CCN(CC)Cc1cc(NC2=NS(=O)(=O)c3ccccc32)ccc1OC(=O)C(C)C.Cl | -14.6
69 | COc1ccccc1C(=O)COC(=O)Cc1n[nH]c(=O)c2ccccc12 | -3.78

Row | SMILES | hERG current change (%, negative = inhibition) at 10uM [%]
70 | COC(=O)c1ccc(NC(=S)NC(=O)C2CCC2)cc1 | 22.4
71 | CC1(C)c2[nH]c3ccccc3c2C[C@H]2C(=O)N(Cc3ccc(F)cc3)C(=O)N21 | 0.805
72 | CCOc1ccc(S(=O)(=O)N2CCOCC2)cc1NC(=O)CSC(=S)N1CCCC1 | -63
73 | O=C(Nc1ccccc1F)C1(c2ccccc2)CC1(Cl)Cl (centres unmarked) | -70
74 | COc1ccc(CNS(=O)(=O)c2cc3c(cc2C)N(C)CCO3)cc1 | -6.3
75 | O=C(O)CN1C(=O)/C(=C\c2cc(Br)ccc2OCc2ccccc2F)SC1=S | 31.2
76 | O=C(NCc1ccccc1)C(=O)NCC1OCCN1S(=O)(=O)c1ccc2c(c1)OCCO2 (centres unmarked) | -3.14
77 | CC(=O)c1ccc(-n2c(CCC(=O)O)ccc2-c2cccs2)cc1 | -0.766
78 | CCOC(=O)C1(C)C=C(Nc2ccccc2)C(=O)N1c1ccccc1 (centres unmarked) | 25.7
79 | COc1cccc2cc(-c3ccnc(=S)[nH]3)oc12 | 10.1
80 | CC(C)Sc1nc(N2CCOCC2)c2c3c(sc2n1)COC(C)(C)C3 | -12
81 | O=c1[nH]ncc(N2CCN(C(c3ccccc3)c3ccccc3)CC2)c1Cl | -4.18
82 | N=c1c(S(=O)(=O)c2ccccc2)cc2c(=O)n3ccccc3nc2n1Cc1cccnc1 | -59.2
83 | O=C(OCc1nnc(-c2ccccc2)o1)c1cc2ccccc2cc1O | 8.95
84 | CC(=O)Nc1c(O)nc(SCC(=O)Nc2cccc(C)c2)[nH]c1=O | 14.8
85 | Cc1csc(=O)n1CCC(=O)OCC(=O)c1c(N)n(C)c(=O)n(C)c1=O | -4.76
86 | CCOc1ccc(NC2=C(OC)C(=O)c3ccccc3C2=O)cc1 | -3.1
87 | Cc1c(NC(=O)Nc2ccccc2Cl)sc(=S)n1C | -8.82
88 | O=C(COc1ccccc1)N1CCN(C(=O)c2ccccc2F)CC1 | 12.1
89 | COc1ccc(C2C(C(N)=O)=C(C)Nc3nc(CCCO)nn32)cc1 (centres unmarked) | 17.8
